From ChEMBL document CHEMBL4888484, “Replenishing the malaria drug discovery pipeline: Screening and hit evaluation of the MMV Hit Generation Library 1 (HGL1) against asexual blood stage Plasmodium falciparum ,using a nano luciferase reporter read-out” (2022) come the findings set out here.

Structures are written as SMILES. Hit rate of the full screen: of about 150,000 compounds, about 540 (0.36%) showed an effect of 50% or more. The list shows a part of the results.

The assay deals with Plasmodium falciparum. Description: Primary screen in NF54 nanoGlo assay, in single point, at 2uM, 72h; a lower Z score goes with more inhibition. Format: functional, Erythrocyte. Conditions: timepoint 72 hour.
With `O=C(NCCn1cc(-c2ccncc2)cn1)c1ccsc1`, the “% Inhibition” value is on record as -11% and the Z score was determined as 2.17.

As for `CCC1CCN(C(=O)CCC(N)=O)CC1`, the “% Inhibition” value is 16% and the Z score is recorded as -1.86.

As for `CC(NC(=O)C(C1CC1)N1CCCC1)c1ccc(-n2ccnn2)cc1` (stereo not drawn), the “% Inhibition” value is recorded as -8% and the Z score was determined as 0.94.

Consider `CC(C)[C@H](NC(=O)[C@H](Cc1ccccc1)n1cnnn1)c1nc2ccccc2[nH]1`, for which the “% Inhibition” value is reported as -15% and the Z score turned out to be 1.85.

For the compound `CCO[C@H]1COC[C@@H]1NC(=O)N(C)Cc1ccoc1`, the “% Inhibition” value is -15% and the Z score is reported as 1.94.

Regarding `C=CCn1cc(-c2cn(C3CCN(S(C)(=O)=O)CC3)nn2)cn1`, the “% Inhibition” value is given as -9% and the Z score is 1.2.

On to `N#Cc1ccc(N2CC[C@H](OCCN3CCCCC3)C2)nc1`, for which the “% Inhibition” value is reported as -16% and the Z score is on record as 2.12.

Turning to `COc1cc(OC)nc(N2CCC(OCc3cccnc3)CC2)n1`, the “% Inhibition” value is -12% and the Z score worked out at 1.06.

`COCCN1CC[C@H](C(=O)Nc2cc(C)c3nc(N)sc3c2)C1`: the “% Inhibition” value is reported as -7% and the Z score is reported as 1.5.

`COc1cccc(C2=NN(C(C)=O)C3(CCCCC3)O2)c1`: the “% Inhibition” value is 7% and the Z score is -1.15.

As for `Cn1cc(CNC2C3CCOC3C23CCCC3)c(C(F)(F)F)n1` (stereo not drawn), the “% Inhibition” value was -9% and the Z score turned out to be 1.17.

For the compound `COCC[C@]1(c2noc(-c3ccncc3)n2)CCCNC1`, the “% Inhibition” value is reported as -3% and the Z score worked out at 0.4.

Take `COc1ccc(NC(=O)Cc2ccc(OC)c(OC)c2)cc1NC(=O)c1ccccc1C`: the “% Inhibition” value is on record as 14% and the Z score is -1.85.

For the compound `Brc1cnc(NCCCO[C@H]2CCOC2)nc1`, the “% Inhibition” value is listed as -3% and the Z score is recorded as 0.32.

As for `CC(C)c1cc(C(=O)OCc2cccc3cn[nH]c23)nn1C`, the “% Inhibition” value is recorded as -1% and the Z score is given as 0.07.

Turning to `CCOC(=O)CN(C)C(=O)C(C)(C)[C@H]1CCC[C@@H](C(F)(F)F)N1`, the “% Inhibition” value was determined as 8% and the Z score was -1.08.

As for `CCCN1CCC[C@H](C(=O)N2CCCCCC2)C1`, the “% Inhibition” value was -16% and the Z score was 1.76.

With `O=C(c1ccc(-c2ccco2)[nH]c1=O)N1CCCN(Cc2ccc(Cl)cc2)CC1`, the “% Inhibition” value worked out at 7% and the Z score was -1.22.

On to `C[C@H]1CCN(CC(=O)N2CCC(c3nc4ccccc4o3)CC2)C1=O`, for which the “% Inhibition” value is -3% and the Z score is given as 0.52.

Turning to `Cc1c(Cl)cccc1NC(=O)CCN(C)Cc1cc2cc(F)ccc2[nH]1`, the “% Inhibition” value was 0% and the Z score is given as 0.07.

Consider `CCO[C@@H](C(=O)NC1CCS(=O)(=O)CC1)c1ccccc1`, for which the “% Inhibition” value is on record as -9% and the Z score is 1.44.

Regarding `Cc1nccn1CCCC(=O)NC[C@H](O)c1ccc(C(C)(C)C)cc1`, the “% Inhibition” value came out at 3% and the Z score was -0.46.

For `O=C(O)Cc1sc(-c2ccc(Br)cc2)nc1-c1ccc(Oc2ccccc2)cc1`, the “% Inhibition” value is -2% and the Z score came out at 0.38.

On to `CN1CC[C@H](CNc2ccnc3c(F)cc(Cl)cc23)CC1=O`, for which the “% Inhibition” value is listed as 4% and the Z score was -0.74.

Broadly, the % Inhibition is the change of the read-out against control, counted positive when it falls.
